# Measurements reported in the supplement of paper PMC8728848.
# Some of the results follow.
# Columns and labels:
# Experiment in all cases: glycan array binding signal (z-score within array); higher = stronger binding
# Conditions in all cases: glycan notation: IUPAC condensed, linker removed
# Neu5Ac(a2-3)GalNAc = target: Neu5Ac(a2-3)GalNAc
# In short: (§1)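 From the Consortium for Functional Glycomics database, 3228 arrays were curated, keeping only those whose protein sequence was available. Binding is given as a within-array Z-score averaged across arrays sharing a protein sequence and across linkers. Negative Z-scores can be read as non-binding.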
# [1] = target: Neu5Ac(a2-3)GalNAc(b1-4)GlcNAc
# In short: as §1
# [2] = target: Neu5Ac(a2-3)[GalNAc(b1-4)]Gal(b1-4)Glc
# In short: as §1
# [3] = target: Neu5Ac(a2-3)[GalNAc(b1-4)]Gal(b1-4)GlcNAc
# In short: as §1
# [4] = target: Neu5Ac(a2-3)[GalNAc(b1-4)]Gal(b1-4)GlcNAc(b1-3)GalNAc
# In short: as §1
# [5] = target: Neu5Ac(a2-3)[Neu5Ac(a2-6)]GalNAc
# In short: as §1
# Neu5Ac(a2-6)Gal = target: Neu5Ac(a2-6)Gal
# In short: as §1
# [6] = target: Neu5Ac(a2-6)Gal(b1-3)GlcNAc(b1-3)[Gal(b1-4)GlcNAc(b1-6)]Gal(b1-4)Glc
# In short: as §1
# Neu5Ac(a2-6)Gal(b1-4)Glc = target: Neu5Ac(a2-6)Gal(b1-4)Glc
# In short: as §1
# [7] = target: Neu5Ac(a2-6)Gal(b1-4)GlcNAc
# In short: as §1
# [8] = target: Neu5Ac(a2-6)Gal(b1-4)GlcNAc(b1-2)Man
# In short: as §1
# [9] = target: Neu5Ac(a2-6)Gal(b1-4)GlcNAc(b1-2)Man(a1-3)Man(b1-4)GlcNAc(b1-4)GlcNAc
# In short: as §1
# [10] = target: Neu5Ac(a2-6)Gal(b1-4)GlcNAc(b1-2)Man(a1-3)[Gal(b1-4)GlcNAc(b1-2)Man(a1-6)]Man(b1-4)GlcNAc(b1-4)GlcNAc
# In short: as §1
# [11] = target: Neu5Ac(a2-6)Gal(b1-4)GlcNAc(b1-2)Man(a1-3)[GlcNAc(b1-2)Man(a1-6)]Man(b1-4)GlcNAc(b1-4)GlcNAc
# In short: as §1
# [12] = target: Neu5Ac(a2-6)Gal(b1-4)GlcNAc(b1-2)Man(a1-3)[GlcNAc(b1-4)][Neu5Ac(a2-6)Gal(b1-4)GlcNAc(b1-2)Man(a1-6)]Man(b1-4)GlcNAc(b1-4)GlcNAc
# In short: as §1
# [13] = target: Neu5Ac(a2-6)Gal(b1-4)GlcNAc(b1-2)Man(a1-3)[Man(a1-6)]Man(b1-4)GlcNAc(b1-4)GlcNAc
# In short: as §1
# [14] = target: Neu5Ac(a2-6)Gal(b1-4)GlcNAc(b1-2)Man(a1-3)[Neu5Ac(a2-3)Gal(b1-4)GlcNAc(b1-2)Man(a1-6)]Man(b1-4)GlcNAc(b1-4)GlcNAc
# In short: as §1
# [15] = target: Neu5Ac(a2-6)Gal(b1-4)GlcNAc(b1-2)Man(a1-3)[Neu5Ac(a2-6)Gal(b1-4)GlcNAc(b1-2)Man(a1-6)]Man(b1-4)GlcNAc(b1-4)GlcNAc
# In short: as §1
# [16] = target: Neu5Ac(a2-6)Gal(b1-4)GlcNAc(b1-2)Man(a1-3)[Neu5Ac(a2-6)Gal(b1-4)GlcNAc(b1-2)Man(a1-6)]Man(b1-4)GlcNAc(b1-4)[Fuc(a1-6)]GlcNAc
# In short: as §1
# [17] = target: Neu5Ac(a2-6)Gal(b1-4)GlcNAc(b1-2)Man(a1-6)Man(b1-4)GlcNAc(b1-4)GlcNAc
# In short: as §1
# [18] = target: Neu5Ac(a2-6)Gal(b1-4)GlcNAc(b1-2)Man(a1-6)[Gal(b1-4)GlcNAc(b1-2)Man(a1-3)]Man(b1-4)GlcNAc(b1-4)GlcNAc
# In short: as §1
# [19] = target: Neu5Ac(a2-6)Gal(b1-4)GlcNAc(b1-2)Man(a1-6)[GlcNAc(b1-2)Man(a1-3)]Man(b1-4)GlcNAc(b1-4)GlcNAc
# In short: as §1
# [20] = target: Neu5Ac(a2-6)Gal(b1-4)GlcNAc(b1-2)Man(a1-6)[Man(a1-3)]Man(b1-4)GlcNAc(b1-4)GlcNAc
# In short: as §1
# [21] = target: Neu5Ac(a2-6)Gal(b1-4)GlcNAc(b1-2)[Neu5Ac(a2-6)Gal(b1-4)GlcNAc(b1-4)]Man(a1-3)[GlcNAc(b1-4)][Neu5Ac(a2-6)Gal(b1-4)GlcNAc(b1-2)[Neu5Ac(a2-6)Gal(b1-4)GlcNAc(b1-6)]Man(a1-6)]Man(b1-4)GlcNAc(b1-4)GlcNAc
# In short: as §1
# [22] = target: Neu5Ac(a2-6)Gal(b1-4)GlcNAc(b1-2)[Neu5Ac(a2-6)Gal(b1-4)GlcNAc(b1-4)]Man(a1-3)[GlcNAc(b1-4)][Neu5Ac(a2-6)Gal(b1-4)GlcNAc(b1-4)Man(a1-6)]Man(b1-4)GlcNAc(b1-4)GlcNAc
# In short: as §1
# [23] = target: Neu5Ac(a2-6)Gal(b1-4)GlcNAc(b1-2)[Neu5Ac(a2-6)Gal(b1-4)GlcNAc(b1-6)]Man(a1-6)[Neu5Ac(a2-6)Gal(b1-4)GlcNAc(b1-2)Man(a1-3)][GlcNAc(b1-4)]Man(b1-4)GlcNAc(b1-4)GlcNAc
# In short: as §1
# [24] = target: Neu5Ac(a2-6)Gal(b1-4)GlcNAc(b1-3)Gal(b1-3)GlcNAc
# In short: as §1
# [25] = target: Neu5Ac(a2-6)Gal(b1-4)GlcNAc(b1-3)Gal(b1-4)GlcNAc
# In short: as §1
# [26] = target: Neu5Ac(a2-6)Gal(b1-4)GlcNAc(b1-3)Gal(b1-4)GlcNAc(b1-2)Man(a1-3)[Neu5Ac(a2-6)Gal(b1-4)GlcNAc(b1-3)Gal(b1-4)GlcNAc(b1-2)Man(a1-6)]GalNAc
# In short: as §1
# [27] = target: Neu5Ac(a2-6)Gal(b1-4)GlcNAc(b1-3)Gal(b1-4)GlcNAc(b1-3)Gal(b1-4)GlcNAc
# In short: as §1
# [28] = target: Neu5Ac(a2-6)Gal(b1-4)GlcNAc(b1-3)Gal(b1-4)GlcNAc(b1-3)Gal(b1-4)GlcNAc(b1-2)Man(a1-3)[Neu5Ac(a2-6)Gal(b1-4)GlcNAc(b1-3)Gal(b1-4)GlcNAc(b1-3)Gal(b1-4)GlcNAc(b1-2)Man(a1-6)]GalNAc
# In short: as §1
# [29] = target: Neu5Ac(a2-6)Gal(b1-4)GlcNAc(b1-3)Gal(b1-4)GlcNAc(b1-3)GalNAc
# In short: as §1
# [30] = target: Neu5Ac(a2-6)Gal(b1-4)GlcNAc(b1-3)Gal(b1-4)GlcNAc(b1-3)[Neu5Ac(a2-6)Gal(b1-4)GlcNAc(b1-3)Gal(b1-4)GlcNAc(b1-6)]GalNAc
# In short: as §1
# [31] = target: Neu5Ac(a2-6)Gal(b1-4)GlcNAc(b1-3)Gal(b1-4)GlcNAc(b1-6)[Gal(b1-3)]GalNAc
# In short: as §1
# [32] = target: Neu5Ac(a2-6)Gal(b1-4)GlcNAc(b1-3)Gal(b1-4)[Fuc(a1-3)]GlcNAc(b1-3)Gal(b1-4)[Fuc(a1-3)]GlcNAc
# In short: as §1
# [33] = target: Neu5Ac(a2-6)Gal(b1-4)GlcNAc(b1-3)GalNAc
# In short: as §1
# [34] = target: Neu5Ac(a2-6)Gal(b1-4)GlcNAc(b1-3)[Neu5Ac(a2-6)Gal(b1-4)GlcNAc(b1-6)]GalNAc
# In short: as §1
binder,measurement,setting,value
Epa12 (Candida glabrata) (protein) MGSSHHHHHHSSGLVPRGSHMLEPDNSLQIFDSFLSNPSKYPLGCSPKITNPKKGLSMELYSYPYRKKGSHPCWDPAYLDPNFPRVGYKKNKLIARVDGVSGDINFNFHPKRQCTPIADYLPPNFNYNEPITTTNFTMLLYGYFKPKVTGLHTFDISADDLLFMNFGAGNAFDCCRRDSTADTFGNYVAWAIWGRRIVRNKLTVRLDKGIYYPLRLFFNNRDYYGQMRLTFKTEHGSERITDFSDYFFSVDDTSEGCPGLITYESECADVKSSTVLETDYITIQAEKE,glycan array binding signal (z-score),Neu5Ac(a2-3)GalNAc,-0.3
same,glycan array binding signal (z-score),[1],-0.336
same,glycan array binding signal (z-score),[2],-0.34
same,glycan array binding signal (z-score),[3],-0.328
same,glycan array binding signal (z-score),[4],-0.257
same,glycan array binding signal (z-score),[5],-0.292
same,glycan array binding signal (z-score),Neu5Ac(a2-6)Gal,-0.091
same,glycan array binding signal (z-score),[6],-0.186
same,glycan array binding signal (z-score),Neu5Ac(a2-6)Gal(b1-4)Glc,-0.126
same,glycan array binding signal (z-score),[7],-0.087
same,glycan array binding signal (z-score),[8],-0.299
same,glycan array binding signal (z-score),[9],-0.309
same,glycan array binding signal (z-score),[10],-0.248
same,glycan array binding signal (z-score),[11],-0.236
same,glycan array binding signal (z-score),[12],-0.372
same,glycan array binding signal (z-score),[13],-0.249
same,glycan array binding signal (z-score),[14],-0.324
same,glycan array binding signal (z-score),[15],-0.273
same,glycan array binding signal (z-score),[16],-0.267
same,glycan array binding signal (z-score),[17],-0.244
same,glycan array binding signal (z-score),[18],-0.241
same,glycan array binding signal (z-score),[19],-0.208
same,glycan array binding signal (z-score),[20],-0.363
same,glycan array binding signal (z-score),[21],-0.162
same,glycan array binding signal (z-score),[22],-0.291
same,glycan array binding signal (z-score),[23],-0.212
same,glycan array binding signal (z-score),[24],-0.322
same,glycan array binding signal (z-score),[25],-0.281
same,glycan array binding signal (z-score),[26],-0.208
same,glycan array binding signal (z-score),[27],-0.406
same,glycan array binding signal (z-score),[28],-0.137
same,glycan array binding signal (z-score),[29],-0.381
same,glycan array binding signal (z-score),[30],-0.298
same,glycan array binding signal (z-score),[31],-0.274
same,glycan array binding signal (z-score),[32],-0.259
same,glycan array binding signal (z-score),[33],-0.292
same,glycan array binding signal (z-score),[34],-0.106
